According to the supplement of paper PMC3334620:
Whole data set: some 33,000 sequences, median “E-score (-0.5 to 0.5)” near -0.01, cut for the highest 2% near 0.26. The list shows a part of the results.

Target: Ste12 (UniProt P13574)
Experiment: PBM E-score (8-mer binding enrichment) (E-score (-0.5 to 0.5)); higher = stronger / more preferred TF binding; most listed sequences are background and not binding sites
Conditions: protein concentration: 200 nM; construct: GST-DNA-binding domain
Method in brief: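 Yeast transcription factors, full-length or as DNA-binding domains, were expressed with a GST tag using PURExpress in vitro transcription/translation. At about 100-200 nM they were applied to universal all-10-mer Agilent arrays, double-stranded by primer extension on fresh or once-stripped slides. Fluorescent anti-GST detected bound protein, and masliner normalised the scans. E-scores for ungapped eight-base words, pooled with reverse complements, came from the Universal PBM Analysis Suite.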

Sequence | PBM E-score
CCTAATAG | -0.0795
GGTGTGAA | 0.19
CACACATG | 0.0585
GAGAGCGA | -0.287
CCTTTGCC | -0.156
AATTCGTA | 0.131
GTGCTTTA | 0.163
CCGGTTGC | 0.0807
ACACCGTG | -0.12
AATGGCGA | 0.0256
AGGGGTTA | -0.0557
GCCTTCAC | -0.0178
CACTTTGG | 0.0297
TCGATAAA | 0.111
CATCTAAG | -0.148
AGACCTAC | -0.172
GCGAAAAA | 0.25
AGACGGCC | -0.195
CAAATTGG | 0.157
AAATGGGA | -0.125
CCACTGCA | -0.113
CAAGATGG | -0.0191
CCTAGCTC | -0.187
TAATCGAA | 0.185
GGTTTTAA | 0.298

Sequence | PBM E-score
AGACCCTG | -0.162
AACATGCA | -0.0993
CCAACCCG | -0.0334
GGCTTGAA | 0.0677
CGTTACTC | 0.00531
CCGGTTAA | 0.0102
GGGGAGAA | 0.109
CGCCCCCC | 0.0158
CGCAGGTA | -0.0531
AGCCGGAC | 0.096
ATTTATAC | 0.195
AATTGGCC | -0.137
GCCTTCCA | -0.179
ACCTTATA | 0.15
CCAAACGG | -0.0425
ACCTAGAA | 0.0054
TATCATGA | 0.0256
GACCCGAC | -0.0152
GACGGCAC | -0.181
AGTTGGAT | 0.00422
CGACATAC | -0.00078
GCAGGATA | -0.0749
AGTTACAC | 0.103
ACCTCCTA | -0.143
CAGAATCG | -0.0269

Sequence | PBM E-score
ATATAGAG | -0.0649
CCTTAAGA | -0.0184
GAACAGAA | 0.187
ATTCCCTC | -0.00224
AAGCGGGT | -0.0385
CAAGTGTC | 0.0254
AACCAGAG | -0.0961
CCAATGTA | -0.0229
GCACGACC | -0.208
GTAAAGTA | 0.149
ACCGTGCC | -0.0247
CTTATTAC | 0.0999
CGGAATTC | 0.0484
CACGTAGG | -0.194
CCCGGGCG | 0.129
ACGTACTG | -0.171
CAGAAGCA | -0.0188
ACGGCTCA | -0.0811
ATACTAAC | 0.146
ACGTGCTC | -0.174
AGCGAGAA | -0.00776
ACGTATCG | -0.108
TCAACAGA | 0.0529
CGCAGTGC | -0.204
CTACCCAC | -0.156

Sequence | PBM E-score
ACGAGTAA | 0.175
GCTCAGTA | -0.0329
ATACAGCG | 0.03
CTTATAAC | 0.181
AAAGTTTG | 0.124
CTCGGCCA | -0.0374
TCCTGTAA | -0.00485
ATGTATTC | 0.149
ACACCTGC | -0.00619
ACAATTCA | -0.0546
ACCTACTG | 0.0397
CTGCGAGA | -0.177
GATCACCC | -0.0484
ACTGCTGG | -0.112
CGTGCACC | -0.0683
CACTAGAA | -0.00622
CGAATTTC | 0.0534
CACCTCCG | -0.0552
ATCTAGCG | -0.245
CCTTTGGC | -0.0779
AGTGGACA | 0.0605
CGGGATAA | 0.133
AGTTCAGG | -0.127
CACAAACG | 0.107
CCGTGGAC | -0.162

Sequence | PBM E-score
CGCGTATA | 0.0947
CGGATTAA | 0.152
GTCCGAAC | -0.0313
AGGGGCAC | -0.225
CACGGGCC | -0.222
CACGACTA | -0.116
GCTAGCCA | -0.284
GTTACCGA | -0.135
CTCTATGC | -0.00383
TAGAACAA | 0.0985
CGAGGAGC | -0.00929
GCAACTAC | -0.0377
TCCAGCGA | -0.259
AACAACTA | -0.00598
ATCGTATG | 0.115
CTATAAAA | 0.235
TAGACCGA | 0.0211
CCTCATTC | 0.0342
GCCTAATA | -0.081
ATGCGTCA | -0.0446
AAGTAACC | -0.00977
GCGACAAC | 0.0808
GTACTCCA | -0.26
GAATTCTA | 0.107
GAAGTTCC | -0.138

Sequence | PBM E-score
CCAACGAA | 0.0604
CTGAACCC | -0.0736
AGGTGCGC | 0.0163
CGAACCCC | -0.135
ATGTTGTC | 0.0286
ATAGCATG | -0.237
GGATAAAA | 0.279
AGACACAC | -0.0908
CACGACAC | -0.00344
CCACAAGA | -0.037
CCGGCGGC | -0.0443
ACGTCAGA | -0.103
CGGTGAAG | -0.147
AAGCCTTC | -0.093
CTGGACTC | -0.106
GTATCATA | 0.163
CCATCAAA | 0.0842
CAGATCAA | 0.00349
GCCAAGCA | -0.00259
ATAGCCCC | -0.137
CCAGAAGC | -0.0194
TAATCTAA | -0.00866
GATACGGC | -0.0222
CTAATACA | 0.0713
AAATAACA | 0.22

Sequence | PBM E-score
GCACACGC | -0.0287
AAGACCCA | -0.0488
AGTGGGAT | -0.00928
CCTTCCCA | 0.127
CGCCCGCG | 0.0652
CGGGTACA | -0.056
CACCGTAG | -0.0576
ACTCCTAT | -0.142
CCTTTCGC | -0.0642
CGTTGGTC | -2e-05
AATTTTAG | 0.105
AGTGCGGC | -0.122
ATACGCTC | -0.00787
CTACTCTC | -0.244
CCATCGCA | -0.0765
GGCCTATA | -0.0877
AGAAATTG | 0.209
ACGAGCAC | -0.0746
ACCTTCAA | -0.0704
CCATCTCA | -0.0464
CAAGTCGC | -0.3
CCGACAAG | 0.0327
